In US20210317204A1 (ALMAC DISCOVERY, published 2021):

Biological target: T1, human ROR1 extracellular domain-Fc fusion (human, UniProt Q01973 partial chain)
T1 construct: extracellular domain; also called hROR1; ROR1-hFc
Assay: SPR, hROR1 ECD-Fc on chip

Row | Kd [nM] | koff [s⁻¹] | kon [M⁻¹ s⁻¹] | Binder
1 | 11.8 | 0.00266 | 240000 | B1G1-hFc (Fc fusion, not shown: small tags and cut ends, construct not described beyond its name) TRVDQSPSSLSASVGDRVTITCVLTGANYGLASTYWYRKNPGSSNKEQISISGRYSESVNKGTKSFTLTISSLQPEDSATYYCRAYPWGAGAPWLVQWYDGAGTKVEIK[human IgG1 Fc with changes cut from this listing]
2 | 2.55 | 0.00141 | 626000 | B1G2-hFc (Fc fusion, not shown: small tags and cut ends, construct not described beyond its name) TRVDQSPSSLSASVGDRVTITCVLTGANYGLASTYWYRKNPGSSNQERISISGRYSESVNKRTMSFTLTISSLQPEDSATYYCRAYPWGAGAPWLVQWYDGAGTKVEIK[human IgG1 Fc with changes cut from this listing]
